Test results reported in the supplement of paper PMC10369915.
The other results are listed elsewhere or left out. Rule as the data show it: active = 3.2 or more and inactive = the rest. Most of these values are background signal.

B1: NID2_Y449_G453D (peptide)
chain: IVLRSYPASDH
B2: NIPBL_Y247_D246G (peptide)
chain: GSSEGYLHMVH
B3: NKAP_Y104 (peptide)
chain: VYYGSYSRPYG
B4: NKAP_Y104_R106C (peptide)
chain: VYYGSYSCPYG
B5: NKAP_Y104_YF (peptide)
chain: VFFGSYSRPFG
B6: NKAPL_Y91 (peptide)
chain: SWSTSYSGYRY
B7: NKAPL_Y91_Y96C_YF (peptide)
chain: SWSTSYSGFRC
B8: NKAPL_Y94_Y96C_YF (peptide)
chain: TSFSGYRCHRH
B9: NLRP3_Y861 (peptide)
chain: SLTRLYVGENA
B10: NLRP7_Y318 (peptide)
chain: AQQPIYVRVEG
B11: NMNAT1_Y64 (peptide)
chain: GLIPAYHRVIM
B12: NMNAT1_Y64_R66W (peptide)
chain: GLIPAYHWVIM
B13: NNMT_Y24_S29C (peptide)
chain: DYLEKYYKFGC
B14: NNMT_Y24_S29C_YF (peptide)
chain: DFLEKYFKFGC
B15: NNMT_Y25 (peptide)
chain: YLEKYYKFGSR
B16: NOB1_Y366 (peptide)
chain: VFAPDYIAGVS
B17: NOG_Y172 (peptide)
chain: RFWPRYVKVGS
B18: NOG_Y222 (peptide)
chain: WIPIQYPIISE
B19: NOG_Y222_I220N (peptide)
chain: WIPNQYPIISE
B20: NOG_Y222_Y222D (peptide)
chain: WIPIQDPIISE
B21: NOMO1_Y1137 (peptide)
chain: FTAVGYHKHIT
B22: NOMO1_Y1137_I1141F (peptide)
chain: FTAVGYHKHFT
B23: NOTCH3_Y2221_A2223V (peptide)
chain: GHGEEYPVAGA
B24: NPC1_Y394_R389C (peptide)
chain: CLEKEYFDQHF
B25: NPHS1_Y1138 (peptide)
chain: TEAEPYYRSLR
B26: NPHS1_Y1138_YF (peptide)
chain: TEAEPYFRSLR
B27: NPHS2_Y131_K126N (peptide)
chain: NVVQEYERVII
B28: NPHS2_Y194_I192V (peptide)
chain: IDAVCYYRMEN
B29: NPHS2_Y194_I192V_YF (peptide)
chain: IDAVCYFRMEN
B30: NPHS2_Y194_YF (peptide)
chain: IDAICYFRMEN
B31: NPHS2_Y195 (peptide)
chain: DAICYYRMENA
B32: NPSR1_Y147 (peptide)
chain: LSIDRYHAIVY
B33: NPY1R_Y347 (peptide)
chain: SRDDDYETIAM
B34: NR2E3_Y81 (peptide)
chain: RRRLIYRCQVG
B35: NR2E3_Y81_R76Q (peptide)
chain: QRRLIYRCQVG
B36: NR2E3_Y81_R76W (peptide)
chain: WRRLIYRCQVG
B37: NR3C1_Y30_F29L (peptide)
chain: DVMDLYKTLRG

Biological target: SHP2 C-SH2 domain E139D
Experiment: enrichment score (SH2-bound / input frequency) (ratio); bacterial display of known human phosphotyrosine sites (pTyr-Var adds point mutants) read by sequencing; higher = stronger binding; tyrosines were phosphorylated by kinases first
Settings: peptide library: pTyr-Var
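Also: displayed peptides selected on beads carrying the immobilized SH2 domain, with library peptides lacking any tyrosine serving as negative controls.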

Binder | enrichment score
B1 | inactive: 1.18
B2 | inactive: 0.765
B3 | inactive: 1.18
B4 | inactive: 0.797
B5 | inactive: 2.51
B6 | inactive: 1.23
B7 | inactive: 0.88
B8 | inactive: 1.1
B9 | inactive: 0.745
B10 | inactive: 0.995
B11 | inactive: 1.26
B12 | inactive: 0.868
B13 | inactive: 1.22
B14 | inactive: 1.14
B15 | inactive: 0.96
B16 | inactive: 1.06
B17 | inactive: 0.463
B18 | inactive: 1.66
B19 | inactive: 1.28

Binder | enrichment score
B20 | inactive: 1.38
B21 | inactive: 2.81
B22 | active: 3.87
B23 | inactive: 0.462
B24 | inactive: 1.03
B25 | inactive: 0.603
B26 | inactive: 0.505
B27 | inactive: 0.882
B28 | inactive: 0.923
B29 | inactive: 1.54
B30 | inactive: 1.87
B31 | inactive: 1.09
B32 | inactive: 1.04
B33 | inactive: 0.617
B34 | inactive: 0.249
B35 | inactive: 0.273
B36 | inactive: 0.243
B37 | inactive: 0.874

Biological target: SHP2 C-SH2 domain wild-type
Experiment: as above
Settings: peptide library: pTyr-Var

Binder | enrichment score
B1 | inactive: 0.914
B2 | inactive: 0.757
B3 | inactive: 1.67
B4 | inactive: 1.1
B5 | inactive: 2.47
B6 | inactive: 1.4
B7 | inactive: 1.17
B8 | inactive: 1.06
B9 | inactive: 0.86
B10 | inactive: 0.714
B11 | inactive: 1.14
B12 | inactive: 0.869
B13 | inactive: 1.46
B14 | inactive: 1.46
B15 | inactive: 0.644
B16 | inactive: 1.09
B17 | inactive: 0.37
B18 | inactive: 1.58
B19 | inactive: 1.14

Binder | enrichment score
B20 | inactive: 1.27
B21 | inactive: 2.33
B22 | inactive: 3.14
B23 | inactive: 0.377
B24 | inactive: 1.02
B25 | inactive: 0.51
B26 | inactive: 0.519
B27 | inactive: 0.8
B28 | inactive: 1.28
B29 | inactive: 2.05
B30 | inactive: 2.24
B31 | inactive: 1.33
B32 | inactive: 1.3
B33 | inactive: 0.534
B34 | inactive: 0.336
B35 | inactive: 0.202
B36 | inactive: 0.267
B37 | inactive: 0.808

Biological target: SHP2 N-SH2 domain L43F
Experiment: as above
Settings: peptide library: pTyr-Var

Binder | enrichment score
B1 | inactive: 0.889
B2 | inactive: 0.75
B3 | inactive: 1.33
B4 | inactive: 1.09
B5 | active: 3.38
B6 | inactive: 1.06
B7 | inactive: 0.816
B8 | inactive: 1.48
B9 | inactive: 0.724
B10 | inactive: 0.928
B11 | inactive: 1
B12 | inactive: 0.846
B13 | inactive: 1.02
B14 | inactive: 1.17
B15 | inactive: 0.731
B16 | inactive: 1.24
B17 | inactive: 0.354
B18 | inactive: 2.21
B19 | inactive: 1.3

Binder | enrichment score
B20 | inactive: 1.43
B21 | inactive: 2.05
B22 | active: 3.34
B23 | inactive: 0.369
B24 | inactive: 0.916
B25 | inactive: 0.514
B26 | inactive: 0.569
B27 | inactive: 0.793
B28 | inactive: 0.929
B29 | inactive: 1.62
B30 | inactive: 2.01
B31 | inactive: 1.04
B32 | inactive: 1.18
B33 | inactive: 0.428
B34 | inactive: 0.224
B35 | inactive: 0.261
B36 | inactive: 0.284
B37 | inactive: 0.899

Biological target: SHP2 N-SH2 domain T42A
Experiment: as above
Settings: peptide library: pTyr-Var

Binder | enrichment score
B1 | inactive: 0.85
B2 | inactive: 0.896
B3 | inactive: 1.21
B4 | inactive: 0.975
B5 | active: 3.52
B6 | inactive: 1.19
B7 | inactive: 0.819
B8 | inactive: 1.04
B9 | inactive: 0.694
B10 | inactive: 0.833
B11 | inactive: 1.28
B12 | inactive: 0.821
B13 | inactive: 1.15
B14 | inactive: 0.911
B15 | inactive: 0.534
B16 | inactive: 0.863
B17 | inactive: 0.567
B18 | inactive: 1.84
B19 | inactive: 1.3

Binder | enrichment score
B20 | inactive: 1.25
B21 | inactive: 2.29
B22 | inactive: 2.97
B23 | inactive: 0.39
B24 | inactive: 0.958
B25 | inactive: 0.45
B26 | inactive: 0.493
B27 | inactive: 0.667
B28 | inactive: 0.848
B29 | inactive: 1.84
B30 | inactive: 1.67
B31 | inactive: 0.939
B32 | inactive: 1.36
B33 | inactive: 0.52
B34 | inactive: 0.22
B35 | inactive: 0.204
B36 | inactive: 0.336
B37 | inactive: 0.798

Biological target: SHP2 N-SH2 domain T52S
Experiment: as above
Settings: peptide library: pTyr-Var

Binder | enrichment score
B1 | inactive: 0.941
B2 | inactive: 0.731
B3 | inactive: 1.23
B4 | inactive: 0.656
B5 | active: 3.58
B6 | inactive: 0.914
B7 | inactive: 0.87
B8 | inactive: 1.17
B9 | inactive: 0.842
B10 | inactive: 0.783
B11 | inactive: 1.06
B12 | inactive: 0.708
B13 | inactive: 1.03
B14 | inactive: 0.842
B15 | inactive: 0.736
B16 | inactive: 0.986
B17 | inactive: 0.411
B18 | inactive: 2.48
B19 | inactive: 1.19

Binder | enrichment score
B20 | inactive: 1.38
B21 | inactive: 2.43
B22 | active: 4.1
B23 | inactive: 0.523
B24 | inactive: 0.836
B25 | inactive: 0.438
B26 | inactive: 0.59
B27 | inactive: 0.816
B28 | inactive: 0.7
B29 | inactive: 1.78
B30 | inactive: 1.75
B31 | inactive: 0.897
B32 | inactive: 1.4
B33 | inactive: 0.459
B34 | inactive: 0.193
B35 | inactive: 0.253
B36 | inactive: 0.253
B37 | inactive: 0.782

Biological target: SHP2 N-SH2 domain wild-type
Experiment: as above
Settings: peptide library: pTyr-Var

Binder | enrichment score
B1 | inactive: 1.57
B2 | inactive: 0.781
B3 | inactive: 1.05
B4 | inactive: 1.17
B5 | inactive: 2.89
B6 | inactive: 1.25
B7 | inactive: 1.12
B8 | inactive: 0.785
B9 | inactive: 0.716
B10 | inactive: 0.844
B11 | inactive: 0.896
B12 | inactive: 1.09
B13 | inactive: 1.51
B14 | inactive: 1.05
B15 | inactive: 0.706
B16 | inactive: 1.12
B17 | inactive: 0.385
B18 | inactive: 1.75
B19 | inactive: 1.21

Binder | enrichment score
B20 | inactive: 1.15
B21 | inactive: 2.72
B22 | inactive: 3.01
B23 | inactive: 0.462
B24 | inactive: 0.944
B25 | inactive: 0.563
B26 | inactive: 0.455
B27 | inactive: 0.814
B28 | inactive: 1.35
B29 | inactive: 1.78
B30 | inactive: 2.74
B31 | inactive: 1.86
B32 | inactive: 1.2
B33 | inactive: 0.684
B34 | inactive: 0.207
B35 | inactive: 0.22
B36 | inactive: 0.359
B37 | inactive: 1
